Tests used:
[1] = Serum stability assay (GCGR agonism activity after incubation in serum at 37° C.); settings: serum (FBS), in words
[2] = target: Recombinant DPP-IV enzyme (Homo sapiens, UniProt P27487); assay: DPP-IV enzyme resistance (GCGR bioactivity after DPP-IV treatment); assay type: in vitro ADME; settings: 5 μM protein, 10 nM recombinant DPP-IV, 37° C., 24 hours; GCGR bioactivity after/before treatment
Method: The purified fusion protein was dissolved in 10 mM of HEPES buffer (containing 0.05 mg/ml BSA) to a final concentration of 5 μM. Recombinant DPP-IV enzyme (final concentration of 10 nM) was added and incubated at 37° C. for 24 hours before detection of GCGR bioactivity. Activity retention rate=(activity after DPP-IV enzyme treatment/activity before DPP-IV enzyme treatment)×100%.

DIO mice = assay: Pharmacodynamic study of continuous administration in diet-induced obese (DIO) mice; assay type: in vivo
Method: The purpose of this Embodiment is to study the effect of different dual functional fusion proteins on the body weight of DIO mice. 7-week-old C57BL/6J male mice were fed with high-fat diet (60% kcal from fat) for another 16 weeks (a total of 23 weeks), and the test was conducted when their body weight reached approximately 55 g. Feeding conditions: 12 h light/12 h darkness, freely fed in single cage; mice were grouped (8 mice per group) according to body weight and body weight growth curve the day before administration; at the next day, mice were administered subcutaneously. The mice are administered at a dose of 20 nmol per kg of body weight once every 4 days, with PBS sham injections on other days, for 28 continuous days. The negative control group was injected with saline (PBS) at 5 ul per kg of body weight. The positive control group was injected with liraglutide (40 nmol per kg of body weight) once a day. The body weights of the mice were measured everyday and the food intakes were recorded. Mice were sacrificed on the 5th day after the last administration. Blood was collected from the eye socket. Plasma samples were stored at −80 C. The average body weight changes of each animal group before administration and sacrifice were calculated.

Recombinant DPP-IV enzyme, sequence (P27487 whole entry, species assumed, the tested form may be a part): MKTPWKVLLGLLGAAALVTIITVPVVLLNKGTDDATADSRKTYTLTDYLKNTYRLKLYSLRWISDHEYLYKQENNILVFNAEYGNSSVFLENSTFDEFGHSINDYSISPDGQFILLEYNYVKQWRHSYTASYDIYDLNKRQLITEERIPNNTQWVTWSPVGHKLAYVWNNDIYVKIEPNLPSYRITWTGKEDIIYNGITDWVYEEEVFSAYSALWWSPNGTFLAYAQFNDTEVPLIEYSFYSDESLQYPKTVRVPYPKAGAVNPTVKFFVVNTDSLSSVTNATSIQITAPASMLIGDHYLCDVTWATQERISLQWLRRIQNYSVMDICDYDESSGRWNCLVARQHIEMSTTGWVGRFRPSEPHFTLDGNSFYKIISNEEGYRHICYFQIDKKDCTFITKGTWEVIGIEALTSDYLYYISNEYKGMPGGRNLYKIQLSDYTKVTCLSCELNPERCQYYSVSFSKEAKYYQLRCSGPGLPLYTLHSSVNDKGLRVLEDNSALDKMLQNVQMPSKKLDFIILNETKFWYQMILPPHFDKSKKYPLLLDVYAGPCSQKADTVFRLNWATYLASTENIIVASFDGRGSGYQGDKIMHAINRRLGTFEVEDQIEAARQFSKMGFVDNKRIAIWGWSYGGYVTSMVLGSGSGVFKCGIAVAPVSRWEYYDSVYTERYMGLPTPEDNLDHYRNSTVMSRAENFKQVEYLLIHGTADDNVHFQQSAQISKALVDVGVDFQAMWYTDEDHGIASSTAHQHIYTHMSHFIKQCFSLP

B1: A232L1F6: SEQ ID NO.65: GCG analogue A232 + linker L1 + IgG FC F6 (protein)
chain: HSQGTFTSDYSKYLDEQAAQDFVQWLLAGGPSSGAPPPSGGGGSGGGGSGGGGSA[letters of human IgG4 Fc with S228P N297A (EU numbers) omitted]
modifications: Amino acid sequence of active protein A232L1F6
Stability in serum (relative GCGR activity over time, FIGS. 1A-B) [1]: significantly more stable in serum compared with other fusion proteins | Activity preservation rate (%) [2]: 98.2%

B2: A352L1F6L5M2: SEQ ID NO.110: GCG analogue A352 + L1 + FC F6 + L5 + FGF21 analogue M2 (protein)
chain: HSQGTFTSDYSKYLDSQAAQDFVQWLLAGGPSSGAPPPSGGGGSGGGGSGGGGSA[letters of human IgG4 Fc with S228P N297A (EU numbers) omitted]GGGGAGGGGAGGGGAHPIPDSSPLLQFGGQVRQRYLYTDDAQQTEAHLEIREDGTVGGAADQSPESLLQLKALKPGVIQILGVKTSRFLCQRPDGALYGSLHFDPEACSFRERLLEDGYNVYQSEAHGLPLHCPGNKSPHRDPAPRGPCRFLPLPGLPPALPEPPGILAPQPPDVGSSDPLSMVGGSQGRSPSYES
modifications: Amino acid sequence of A352L1F6L5M2
Side effects / safety (DIO mice; DIO mice (Embodiment 7)): potentially lower side effects and improved safety | Weight loss effect in DIO mice (DIO mice; DIO mice, 20 nmol per kg subcutaneous once every 4 days, 28 days): more significant weight loss effect
